Source: PubChem BioAssay
Inconclusive means that the source gave no clear call. Such entries were picked first, then a sample of the others. Activity calls are given as the source filed them.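 How the source made its calls: active means viability at or below 30% in both replicate assays; inconclusive means viability at or below 30% in just one of the two assays; inactive means the rest.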

Test: HUVEC growth inhibition – cell-based, human, primary screen (AID 575);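 further: 100% = median of untreated cell wells with 0.1% DMSO on each plate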
Details: HUVEC proliferation, CellTiter-Glo luminescence, 72 h; at 10 µM; hits give low values
Summary of the method: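 Test system – primary HUVEC, no more than 12 passages · Dosing – one dose, 10 µM final, 0.1% DMSO · Times – 72 h treatment at 37 °C · Measured by – ATP-based CellTiter-Glo luminescent read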

Row | Structure (SMILES) | viability
1 | Cc1ccc2c(c1)C1CCCC3C1N2CC(=O)N3Cc1ccccc1 (configuration not stated) | inconclusive: 46.6%
2 | Cc1ccccc1-c1nc(CN2CCC(C(=O)NC3CCN(Cc4ccccc4)CC3)CC2)c(C)o1 | inconclusive: 38.8%
3 | O=C(NC1CC1)c1cccc(Nc2ccc(-c3ccc4c(c3)OCCO4)nn2)c1 | inconclusive: 28.4%
4 | CN(C)c1ccc(C(=O)Nc2nnc(-c3ccc(Cl)cc3)o2)cc1 | active: 13.4%
5 | Cc1ccccc1Cn1nc(C)c(NC(=O)c2noc3c2CCc2ccccc2-3)c1C | inconclusive: 37.4%
6 | Cc1ccc(C)c(N2CCN(CCCNC(=O)Cn3cc4c(n3)CCC(C)C4)CC2)c1 (configuration not stated) | inconclusive: 31.9%
7 | CCOC(=O)CSC1=C(C#N)C(c2ccc(C)o2)CC(=O)N1 (configuration not stated) | inconclusive: 30.2%
8 | Cc1ccc(-c2oc3ccccc3c(=O)c2O)cc1 | inconclusive: 46.2%
9 | O=C(/C=C/N1CCOCC1)c1ccc(-c2ccccc2)cc1 | inactive: 81.8%
10 | CO[C@H]1C=CO[C@@]2(C)Oc3c(C)c(O)c4c(O)c(c(C=NN5CCN(C)CC5)c(O)c4c3C2=O)NC(=O)C(C)=CC=C[C@H](C)[C@H](O)[C@@H](C)[C@@H](O)[C@@H](C)[C@H](OC(C)=O)[C@@H]1C | inconclusive: 42.8%
11 | CCOC(=O)CCCOC(=O)c1ccc(S(=O)(=O)N(C)C)cc1 | inactive: 88.7%
12 | COC(=O)CSC1=NS(=O)(=O)c2ccccc21 | inactive: 60%
13 | Cc1cc(/C=N/n2cnnc2)c(C)n1-c1cccc(Cl)c1 | inconclusive: 29.1%
14 | Cc1cc(C)c2c(=O)n(CC(=O)NCCCN3CCOCC3)sc2n1 | inactive: 64.1%
15 | CCOC(=O)c1ccc(N=c2sc(C(=O)OC)cc(=O)n2Cc2ccco2)cc1 | inconclusive: 41.1%
16 | COc1cc(C(=O)N2CCN(c3cc(Cl)ccc3Cl)CC2)cc(OC)c1OC | active: 20.1%

Row | Structure (SMILES) | viability
17 | CCOC(=O)N1CCC(c2cc(=O)n3[nH]c(C)c(-c4ccc(F)cc4)c3n2)CC1 | active: 7%
18 | COC(=O)c1cc(=O)n(Cc2ccc3c(c2)OCO3)c(=Nc2ccccc2)s1 | inconclusive: 31%
19 | CCn1c2ccccc2c2cc(Nc3cc(C)nc4ncnn34)ccc21 | active: 18.1%
20 | O=C(CCNS(=O)(=O)c1cccc2nsnc12)Nc1ccc2c(c1)OCCO2 | inactive: 88.7%
21 | Cc1ccc(C2c3c(oc4ccccc4c3=O)C(=O)N2c2nnc(C(C)C)s2)o1 (configuration not stated) | inconclusive: 28.7%
22 | Cc1oc(-c2cccc(Cl)c2)nc1CN1CCC(C(=O)N2CCN(c3ccccc3F)CC2)CC1 | active: 4.6%
23 | Cc1cc(C)c2ccc(N)nc2c1O | inconclusive: 42.9%
24 | CS(=O)(=O)N(Cc1nc2sc3c(c2c(=O)[nH]1)CCCC3)C1CCCCC1 | inactive: 77.9%
25 | CCCN(CCC)C(=O)c1c(C)[nH]c(C(=O)OCC)c1C | inactive: 106%
26 | COc1cccc(CNC(=O)CCS(=O)(=O)c2cccc3nsnc23)c1 | inactive: 105%
27 | O=C(OCC(=O)c1ccc[nH]1)c1ccc(S(=O)(=O)N2CCCCC2)cc1 | inactive: 90.9%
28 | COc1ccc(C2CC(c3ccc(Cl)cc3Cl)Nc3nc(N)nn32)cc1 (configuration not stated) | inactive: 115%
29 | Cc1cc(C)c2c(=O)n(CC(=O)NCCCN3CCN(c4ccccc4F)CC3)sc2n1 | inconclusive: 24.8%
30 | C/C=C/COC(=O)c1[nH]c2c(c1C)C(=O)CC(c1ccco1)C2 (configuration not stated) | inconclusive: 27.7%
31 | COC(=O)c1[nH]c2c(c1C)C(=O)CC(c1cc(OC)ccc1OC)C2 (configuration not stated) | inconclusive: 44.2%
32 | Cc1c(C(=O)OCc2ccccc2)[nH]c2c1C(=O)CC(c1ccco1)C2 (configuration not stated) | active: 7.06%
